# Measured values: the supplement of paper PMC8728848
# Some of the results follow.
# What was measured:
# Test in all cases: glycan array binding signal (z-score within array); higher = stronger binding
# Settings in all cases: glycan notation: IUPAC condensed, linker removed
# Glc(b1-4)Glc = molecular target: Glc(b1-4)Glc
# Outline: (§1)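 From the Consortium for Functional Glycomics database, 3228 arrays were curated, keeping only those whose protein sequence was available. Binding is given as a within-array Z-score averaged across arrays sharing a protein sequence and across linkers. Negative Z-scores can be read as non-binding.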
# Glc(b1-6)Glc = molecular target: Glc(b1-6)Glc
# Outline: as §1
# GlcA(b1-3)Gal = molecular target: GlcA(b1-3)Gal
# Outline: as §1
# GlcA(b1-3)GlcNAc = molecular target: GlcA(b1-3)GlcNAc
# Outline: as §1
# GlcA(b1-6)Gal = molecular target: GlcA(b1-6)Gal
# Outline: as §1
# [1] = molecular target: GlcA3S(b1-3)Gal(b1-4)GlcNAc(b1-2)Man
# Outline: as §1
# [2] = molecular target: GlcA3S(b1-3)Gal(b1-4)GlcNAc(b1-3)Gal(b1-4)Glc
# Outline: as §1
# [3] = molecular target: GlcNAc(a1-3)Gal(b1-4)GlcNAc
# Outline: as §1
# [4] = molecular target: GlcNAc(a1-4)Gal(b1-3)GlcNAc
# Outline: as §1
# [5] = molecular target: GlcNAc(a1-4)Gal(b1-4)GalNAc
# Outline: as §1
# [6] = molecular target: GlcNAc(a1-4)Gal(b1-4)GlcNAc
# Outline: as §1
# [7] = molecular target: GlcNAc(a1-4)Gal(b1-4)GlcNAc(b1-3)Gal(b1-4)Glc
# Outline: as §1
# [8] = molecular target: GlcNAc(a1-4)Gal(b1-4)GlcNAc(b1-3)Gal(b1-4)GlcNAc
# Outline: as §1
# [9] = molecular target: GlcNAc(a1-4)Gal(b1-4)GlcNAc(b1-3)Gal(b1-4)GlcNAc(b1-3)Gal(b1-4)GlcNAc
# Outline: as §1
# [10] = molecular target: GlcNAc(a1-4)Gal(b1-4)GlcNAc(b1-3)Gal(b1-4)[Fuc(a1-3)]GlcNAc(b1-3)Gal(b1-4)[Fuc(a1-3)]GlcNAc
# Outline: as §1
# [11] = molecular target: GlcNAc(a1-6)Gal(b1-4)GlcNAc
# Outline: as §1
# [12] = molecular target: GlcNAc(b1-2)Gal(b1-3)GalNAc
# Outline: as §1
# [13] = molecular target: GlcNAc(b1-2)Man(a1-3)[GlcNAc(b1-2)Man(a1-6)]Man(b1-4)GlcNAc(b1-4)GlcNAc
# Outline: as §1
# [14] = molecular target: GlcNAc(b1-2)Man(a1-3)[GlcNAc(b1-2)Man(a1-6)]Man(b1-4)GlcNAc(b1-4)[Fuc(a1-6)]GlcNAc
# Outline: as §1
# [15] = molecular target: GlcNAc(b1-2)Man(a1-3)[GlcNAc(b1-4)][GlcNAc(b1-2)Man(a1-6)]Man(b1-4)GlcNAc(b1-4)GlcNAc
# Outline: as §1
# [16] = molecular target: GlcNAc(b1-2)Man(a1-3)[GlcNAc(b1-4)][GlcNAc(b1-2)Man(a1-6)]Man(b1-4)GlcNAc(b1-4)[Fuc(a1-6)]GlcNAc
# Outline: as §1
# [17] = molecular target: GlcNAc(b1-2)[GlcNAc(b1-4)]Man(a1-3)[GlcNAc(b1-2)Man(a1-6)]Man(b1-4)GlcNAc(b1-4)GlcNAc
# Outline: as §1
# [18] = molecular target: GlcNAc(b1-2)[GlcNAc(b1-4)]Man(a1-3)[GlcNAc(b1-4)][GlcNAc(b1-2)Man(a1-6)]Man(b1-4)GlcNAc(b1-4)GlcNAc
# Outline: as §1
# [19] = molecular target: GlcNAc(b1-2)[GlcNAc(b1-4)]Man(a1-3)[GlcNAc(b1-4)][GlcNAc(b1-2)[GlcNAc(b1-6)]Man(a1-6)]Man(b1-4)GlcNAc(b1-4)GlcNAc
# Outline: as §1
# [20] = molecular target: GlcNAc(b1-2)[GlcNAc(b1-4)]Man(a1-3)[GlcNAc(b1-4)][GlcNAc(b1-2)[GlcNAc(b1-6)]Man(a1-6)]Man(b1-4)GlcNAc(b1-4)[Fuc(a1-6)]GlcNAc
# Outline: as §1
# [21] = molecular target: GlcNAc(b1-2)[GlcNAc(b1-6)]Man(a1-6)[GlcNAc(b1-2)Man(a1-3)]Man(b1-4)GlcNAc(b1-4)GlcNAc
# Outline: as §1
# [22] = molecular target: GlcNAc(b1-2)[GlcNAc(b1-6)]Man(a1-6)[GlcNAc(b1-2)Man(a1-3)]Man(b1-4)GlcNAc(b1-4)[Fuc(a1-6)]GlcNAc
# Outline: as §1
# [23] = molecular target: GlcNAc(b1-2)[GlcNAc(b1-6)]Man(a1-6)[GlcNAc(b1-4)][GlcNAc(b1-2)Man(a1-3)]Man(b1-4)GlcNAc(b1-4)GlcNAc
# Outline: as §1
# GlcNAc(b1-3)Fuc = molecular target: GlcNAc(b1-3)Fuc
# Outline: as §1
# GlcNAc(b1-3)Gal = molecular target: GlcNAc(b1-3)Gal
# Outline: as §1
# [24] = molecular target: GlcNAc(b1-3)Gal(b1-3)GalNAc
# Outline: as §1
# GlcNAc(b1-3)Gal(b1-4)Glc = molecular target: GlcNAc(b1-3)Gal(b1-4)Glc
# Outline: as §1
# [25] = molecular target: GlcNAc(b1-3)Gal(b1-4)GlcNAc
# Outline: as §1
# [26] = molecular target: GlcNAc(b1-3)Gal(b1-4)GlcNAc(b1-2)Man(a1-3)[GlcNAc(b1-3)Gal(b1-4)GlcNAc(b1-2)Man(a1-6)]Man(b1-4)GlcNAc(b1-4)GlcNAc
# Outline: as §1
# [27] = molecular target: GlcNAc(b1-3)Gal(b1-4)GlcNAc(b1-2)Man(a1-3)[GlcNAc(b1-3)Gal(b1-4)GlcNAc(b1-2)Man(a1-6)]Man(b1-4)GlcNAc(b1-4)[Fuc(a1-6)]GlcNAc
# Outline: as §1
# [28] = molecular target: GlcNAc(b1-3)Gal(b1-4)GlcNAc(b1-2)[GlcNAc(b1-3)Gal(b1-4)GlcNAc(b1-6)]Man(a1-6)[GlcNAc(b1-3)Gal(b1-4)GlcNAc(b1-2)Man(a1-3)]Man(b1-4)GlcNAc(b1-4)GlcNAc
# Outline: as §1
# [29] = molecular target: GlcNAc(b1-3)Gal(b1-4)GlcNAc(b1-3)Gal(b1-4)GlcNAc
# Outline: as §1
# [30] = molecular target: GlcNAc(b1-3)Gal(b1-4)GlcNAc(b1-3)Gal(b1-4)GlcNAc(b1-2)Man(a1-3)[GlcNAc(b1-3)Gal(b1-4)GlcNAc(b1-3)Gal(b1-4)GlcNAc(b1-2)Man(a1-6)]Man(b1-4)GlcNAc(b1-4)GlcNAc
# Outline: as §1
# [31] = molecular target: GlcNAc(b1-3)Gal(b1-4)GlcNAc(b1-3)Gal(b1-4)GlcNAc(b1-2)Man(a1-3)[GlcNAc(b1-3)Gal(b1-4)GlcNAc(b1-3)Gal(b1-4)GlcNAc(b1-2)Man(a1-6)]Man(b1-4)GlcNAc(b1-4)[Fuc(a1-6)]GlcNAc
# Outline: as §1
# [32] = molecular target: GlcNAc(b1-3)Gal(b1-4)GlcNAc(b1-3)Gal(b1-4)GlcNAc(b1-2)[GlcNAc(b1-3)Gal(b1-4)GlcNAc(b1-3)Gal(b1-4)GlcNAc(b1-6)]Man(a1-6)[GlcNAc(b1-3)Gal(b1-4)GlcNAc(b1-3)Gal(b1-4)GlcNAc(b1-2)Man(a1-3)]Man(b1-4)GlcNAc(b1-4)[Fuc(a1-6)]GlcNAc
# Outline: as §1
# [33] = molecular target: GlcNAc(b1-3)Gal(b1-4)GlcNAc(b1-3)Gal(b1-4)GlcNAc(b1-3)Gal(b1-4)GlcNAc(b1-2)Man(a1-3)[GlcNAc(b1-3)Gal(b1-4)GlcNAc(b1-3)Gal(b1-4)GlcNAc(b1-3)Gal(b1-4)GlcNAc(b1-2)Man(a1-6)]Man(b1-4)GlcNAc(b1-4)GlcNAc
# Outline: as §1
# [34] = molecular target: GlcNAc(b1-3)Gal(b1-4)GlcNAc(b1-3)Gal(b1-4)GlcNAc(b1-3)Gal(b1-4)GlcNAc(b1-2)Man(a1-3)[GlcNAc(b1-3)Gal(b1-4)GlcNAc(b1-3)Gal(b1-4)GlcNAc(b1-3)Gal(b1-4)GlcNAc(b1-2)Man(a1-6)]Man(b1-4)GlcNAc(b1-4)[Fuc(a1-6)]GlcNAc
# Outline: as §1
# [35] = molecular target: GlcNAc(b1-3)Gal(b1-4)GlcNAc(b1-3)Gal(b1-4)GlcNAc(b1-3)Gal(b1-4)GlcNAc(b1-2)[GlcNAc(b1-3)Gal(b1-4)GlcNAc(b1-3)Gal(b1-4)GlcNAc(b1-3)Gal(b1-4)GlcNAc(b1-6)]Man(a1-6)[GlcNAc(b1-3)Gal(b1-4)GlcNAc(b1-3)Gal(b1-4)GlcNAc(b1-3)Gal(b1-4)GlcNAc(b1-2)Man(a1-3)]Man(b1-4)GlcNAc(b1-4)[Fuc(a1-6)]GlcNAc
# Outline: as §1
# [36] = molecular target: GlcNAc(b1-3)Gal(b1-4)GlcNAc(b1-3)Gal(b1-4)GlcNAc(b1-3)Gal(b1-4)GlcNAc(b1-3)Gal(b1-4)GlcNAc(b1-2)Man(a1-3)[GlcNAc(b1-3)Gal(b1-4)GlcNAc(b1-3)Gal(b1-4)GlcNAc(b1-3)Gal(b1-4)GlcNAc(b1-3)Gal(b1-4)GlcNAc(b1-2)Man(a1-6)]Man(b1-4)GlcNAc(b1-4)GlcNAc
# Outline: as §1
# [37] = molecular target: GlcNAc(b1-3)Gal(b1-4)GlcNAc(b1-3)Gal(b1-4)GlcNAc(b1-3)Gal(b1-4)GlcNAc(b1-3)Gal(b1-4)GlcNAc(b1-2)Man(a1-3)[GlcNAc(b1-3)Gal(b1-4)GlcNAc(b1-3)Gal(b1-4)GlcNAc(b1-3)Gal(b1-4)GlcNAc(b1-3)Gal(b1-4)GlcNAc(b1-2)Man(a1-6)]Man(b1-4)GlcNAc(b1-4)[Fuc(a1-6)]GlcNAc
# Outline: as §1
binder,measurement,setting,value
"Epa9 (Candida glabrata), CAGL0A01386g (protein) MGSSHHHHHHSSGLVPRGSHMDITPFAHYPRPEGCSSPPNAVSVGLHMDLYNYPYLYVKNPRTGFTNDTDSDADGETDGDSAGGIEGRAGQCWNPEYQDPNFPRYGYKKYGSFGSSDHVNGKISWDHNEFKEGCKPIMARLPTAYNYPAKITFSNFTMVLSGYFKPKSTGLYKFEIHADDFILFNFGSKNAFECCNREESIDNFGPYVAYAMWPNEADQELEVYLFEDSYYPIRLFYNNRDYHSKFMVGFYPPNTEEITYDFDGYLYMLDDTGNECKDSIRYKTVCDD",glycan array binding signal (z-score),Glc(b1-4)Glc,-0.467
same,glycan array binding signal (z-score),Glc(b1-6)Glc,-0.483
same,glycan array binding signal (z-score),GlcA(b1-3)Gal,-0.473
same,glycan array binding signal (z-score),GlcA(b1-3)GlcNAc,-0.49
same,glycan array binding signal (z-score),GlcA(b1-6)Gal,-0.198
same,glycan array binding signal (z-score),[1],-0.48
same,glycan array binding signal (z-score),[2],-0.456
same,glycan array binding signal (z-score),[3],-0.472
same,glycan array binding signal (z-score),[4],-0.492
same,glycan array binding signal (z-score),[5],-0.515
same,glycan array binding signal (z-score),[6],-0.453
same,glycan array binding signal (z-score),[7],-0.565
same,glycan array binding signal (z-score),[8],-0.445
same,glycan array binding signal (z-score),[9],-0.462
same,glycan array binding signal (z-score),[10],-0.409
same,glycan array binding signal (z-score),[11],1.4
same,glycan array binding signal (z-score),[12],-0.446
same,glycan array binding signal (z-score),[13],-0.48
same,glycan array binding signal (z-score),[14],-0.404
same,glycan array binding signal (z-score),[15],-0.485
same,glycan array binding signal (z-score),[16],-0.459
same,glycan array binding signal (z-score),[17],-0.372
same,glycan array binding signal (z-score),[18],-0.47
same,glycan array binding signal (z-score),[19],-0.501
same,glycan array binding signal (z-score),[20],-0.473
same,glycan array binding signal (z-score),[21],-0.462
same,glycan array binding signal (z-score),[22],-0.444
same,glycan array binding signal (z-score),[23],-0.467
same,glycan array binding signal (z-score),GlcNAc(b1-3)Fuc,-0.463
same,glycan array binding signal (z-score),GlcNAc(b1-3)Gal,-0.471
same,glycan array binding signal (z-score),[24],-0.414
same,glycan array binding signal (z-score),GlcNAc(b1-3)Gal(b1-4)Glc,-0.43
same,glycan array binding signal (z-score),[25],-0.451
same,glycan array binding signal (z-score),[26],-0.47
same,glycan array binding signal (z-score),[27],-0.4
same,glycan array binding signal (z-score),[28],-0.373
same,glycan array binding signal (z-score),[29],-0.392
same,glycan array binding signal (z-score),[30],-0.371
same,glycan array binding signal (z-score),[31],-0.415
same,glycan array binding signal (z-score),[32],-0.404
same,glycan array binding signal (z-score),[33],-0.416
same,glycan array binding signal (z-score),[34],-0.393
same,glycan array binding signal (z-score),[35],-0.41
same,glycan array binding signal (z-score),[36],-0.276
same,glycan array binding signal (z-score),[37],0.061
